From PubChem BioAssay AID485364 (National Center for Advancing Translational Sciences (NCATS), 2010)
In all, about 360,000 compounds went through this assay and about 11,000 (3.1%) were called active. Inconclusive results, whose numbers are uncertain, are shown with a selection of clear calls. Calls follow the shape of the dose curve; as a rule, active = well fitted inhibition curve with a large enough effect; inconclusive = small, poorly fitted or top-dose-only effect; inactive = no such curve, though single readings can be large or run the other way. No potency is given beside an inconclusive call; the fits are too rough.

target: Schistosoma mansoni thioredoxin glutathione reductase (TGR) (UniProt Q962Y6); test: qHTS Assay for the Inhibitors of Schistosoma Mansoni Peroxiredoxins; conditions: purified TGR, DTNB reduction, TNB absorbance 405 nm; series mostly up to 114 µM; also: nearly all actives have a fitted effect of over 60% in size
Outline: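 Kinetic colorimetric format: TGR-catalysed, NADPH-driven DTNB reduction monitored via TNB absorbance. Enzyme dispensed at 20 nM; compound exposure 15 min at room temperature before reaction start.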
Potency is read from the fitted curve at half-maximal effect; tags tell the direction and shape of the fitted curve.

Row | Compound | Potency
1 | Cc1nn(Cc2ccccc2Cl)c(C)c1NC(=O)CCCn1nc([N+](=O)[O-])c(Cl)c1C | inactive
2 | NNC(=O)c1csc(CS(=O)(=O)c2ccc(Cl)cc2)n1 | inconclusive [inhibitor, partial curve]
3 | Cc1c(Cl)cccc1NC(=O)NCc1ccc(C)n1C | active: 35.5 µM
4 | Cc1ccc(-c2n[nH]c(=S)n2Cc2ccccc2)cc1 | inactive
5 | CC(C)(CO)CNC1CCCN(C2Cc3ccccc3C2)C1 (stereo unspecified) | inconclusive [inhibitor, single point]
6 | O=C(N=C1c2ccccc2CN1c1ccc(F)c(F)c1)c1cccnc1 | active: 44.7 µM
7 | Cc1ccc(S(=O)(=O)N(CC(=O)NCCSCc2ccco2)c2ccc(F)cc2)cc1 | active: 12.6 µM
8 | CCC(C)Sc1ccc([C@@H]2[C@@H]3C(=O)N(C)C(=O)[C@@H]3[C@]3(C(=O)OC)CCCCN23)cc1OC (stereo partly specified) | inconclusive [inhibitor, partial curve]
9 | Cc1ccc(OCC(=O)Nc2ccc(S(=O)(=O)Nc3onc(C)c3C)cc2)cc1 | active: 89.1 µM
10 | CC(=O)C(=Nc1ccc(Cl)cc1Cl)NNc1cccc(Cl)c1 | inconclusive [inhibitor, partial curve]
11 | CN1C/C(=C/c2cccnc2)C(=O)/C(=C/c2cccnc2)C1 | inconclusive [inhibitor, full curve]
12 | O=C(Nc1ccccc1N1CCCC1)c1ccc([N+](=O)[O-])o1 | inactive
13 | CC(C)CCNC(=O)c1ccc(C2SCC(=O)N2Cc2ccco2)cc1 (stereo unspecified) | active: 25.1 µM
14 | Cc1ccc(C(=O)NC2CC3CCCC(C2)N3Cc2ccccc2)cc1 (stereo unspecified) | inactive
15 | CNC(=O)C(=O)NCC1OCCCN1S(=O)(=O)c1ccc2c(c1)OCCO2 (stereo unspecified) | inconclusive [inhibitor, single point]
16 | O=C(Nc1nc(N2C(=O)c3ccccc3C2=O)n(-c2ccccc2)n1)c1ccc(F)cc1 | inconclusive [inhibitor, single point]
17 | CC1(C)CC(=O)C=C(NCCN2CCN(C(=S)Nc3ccc(F)cc3)CC2)C1 | inactive
18 | COc1ccc(-c2ccccc2NC(=O)C2CCCN(Cc3ccc(C)o3)C2)cc1 (stereo unspecified) | inconclusive [inhibitor, partial curve]
19 | CCOc1ccc(C2OC34CCCCC3C(C#N)(C#N)C2(C#N)C(=N)O4)cc1OC (stereo unspecified) | active: 50.1 µM
20 | COc1ccc(OC)c(Nc2nc(NCc3ccco3)nc(N)c2[N+](=O)[O-])c1 | inactive
21 | COc1cc(/C=C2/CC/C(=C/c3ccc(O)c(OC)c3)C2=O)ccc1O | active: 44.7 µM
22 | O=C(NC(=S)NCc1ccccc1)c1cccc(Cl)c1 | inconclusive [inhibitor, partial curve]
23 | CSCCCNC(=S)N1CCc2ccccc2C1 | inactive
24 | O=S(=O)(NCC(c1ccco1)S(=O)(=O)c1ccccc1)c1ccccc1 (stereo unspecified) | inconclusive [inhibitor, partial curve, poor fit]

Row | Compound | Potency
25 | CC(C)[C@H](Nc1ccc(S(=O)(=O)N2CCOCC2)cc1[N+](=O)[O-])C(=O)OCC(=O)N(C(C)C)C(C)C | inactive
26 | CCN(CC)S(=O)(=O)c1ccc(N2CCOCC2)c(NC(=O)c2c3c(nc4ccccc24)CCC3)c1 | inactive
27 | O=C(CN1C2=NCCN2c2ccccc21)N1CCOCC1 | inconclusive [inhibitor, full curve, poor fit]
28 | COc1cccc(OCCOCCNCCO)c1 | inconclusive [inhibitor, full curve]
29 | Cc1c(CNCCc2ccccc2Cl)c(C(=O)O)c(C)n1-c1ccccc1 | inconclusive [inhibitor, full curve]
30 | COC(=O)c1cc(C(=O)OCC(=O)c2ccc3c(c2)NC(=O)CO3)cc([N+](=O)[O-])c1 | active: 39.8 µM
31 | CC1(C)Cc2c(C#N)c(NCCc3ccccc3)nc(-c3ccco3)c2CO1 | inconclusive [inhibitor, partial curve, poor fit]
32 | CC(=O)C1=C(C)NC(SCC(=O)c2ccc(C)cc2)=C(C#N)C1c1ccco1 (stereo unspecified) | inconclusive [inhibitor, partial curve]
33 | O=C(O)CC(Cc1ccccc1)(C(=O)O)c1ccccc1 (stereo unspecified) | inactive
34 | CCC(=O)Nc1cccc(C(=O)/C=C/c2ccc(F)cc2)c1 | inconclusive [inhibitor, full curve]
35 | CC(=O)c1sc2nc(-c3ccco3)ccc2c1N | active: 0.891 µM
36 | Clc1ccc(-c2ccc(CNCc3ccccn3)o2)cc1 | inconclusive [inhibitor, partial curve]
37 | COC(=O)c1ccc(C2C(C(C)=O)=C(O)C(=O)N2CCO)cc1 (stereo unspecified) | inconclusive [inhibitor, full curve, poor fit]
38 | O=C(/C=C/c1cccs1)NC(=S)Nc1ccc(C(=O)O)cc1 | inconclusive [inhibitor, full curve]
39 | Cc1ccc(CN2C(=O)C(Cc3ccccc3)Nc3ncnc(N4CCN(c5ccccc5)CC4)c32)cc1 (stereo unspecified) | inconclusive [inhibitor, partial curve]
40 | CCOC(=O)N1CCN(C(=O)CSc2nnc(-c3cccc(OC)c3)o2)CC1 | inactive
41 | CC(CCc1ccccc1)NC(=S)NC(=O)c1ccco1 (stereo unspecified) | inconclusive [inhibitor, partial curve]
42 | Cc1ccc(S(=O)(=O)NCC(=O)OCC(=O)c2ccc(Br)s2)cc1 | inconclusive [inhibitor, partial curve]
43 | COc1ccc(C(C)=O)cc1COC(=O)CCNS(=O)(=O)c1ccc(C)c(C)c1 | inconclusive [inhibitor, full curve, poor fit]
44 | Cc1cccc(N2CC(C(=O)Nc3ccc4c(c3)OCCO4)CC2=O)c1C (stereo unspecified) | inactive
45 | CC(=O)c1cc(C(=O)c2ccccc2)sc1Nc1ccccc1 | inconclusive [inhibitor, single point]
46 | CCOC(=O)C1=C(C)OC(N)=C(C#N)C1c1cc2c(cc1[N+](=O)[O-])OCO2 (stereo unspecified) | inconclusive [inhibitor, partial curve]
47 | Cc1c(C(=O)OCC(=O)NCCc2ccc(S(N)(=O)=O)cc2)oc2ccccc12 | inactive
48 | O=C(Nc1cc(Cl)ccc1O)C1CC(c2ccccc2O)=NO1 (stereo unspecified) | inconclusive [inhibitor, single point]

Row | Compound | Potency
49 | CC(=O)NC(Cc1ccc(N(CCCl)CCCl)cc1)C(=O)NC(CC(C)C)C(=O)O (stereo unspecified) | active: 28.2 µM
50 | N#CC1=C(c2ccc(-c3ccccc3)cc2)COC1=O | inconclusive [inhibitor, partial curve]
51 | COc1cc(C(=O)NC(=S)Nc2ccc(Cc3ccncc3)cc2)cc(OC)c1OC | inconclusive [inhibitor, full curve, poor fit]
52 | Cc1ccc(C)c2[nH]c(=O)c(CN(Cc3cccnc3)C(=S)NCc3ccco3)cc12 | inconclusive [inhibitor, partial curve]
53 | Cc1ccc(Cc2cnc(N)s2)o1 | inconclusive [inhibitor, partial curve]
54 | CCOc1ccc(NC(=S)Nc2ccc(F)cc2)cc1 | inconclusive [inhibitor, partial curve]
55 | COc1ccc(CN(C)Cc2c(O)ccc3cc(Br)ccc23)cc1OC | active: 8.91 µM
56 | Cc1ccc(S(=O)(=O)Nc2cccc3cccnc23)c([N+](=O)[O-])c1 | inactive
57 | Cc1cccc(OC(=O)c2cc(-c3ccc4c(c3)OCCO4)on2)c1C | inactive
58 | O=c1[nH]c(-c2cccnc2)nc2sc(-c3ccccc3)cc12 | inconclusive [inhibitor, full curve, poor fit]
59 | CCOC(=O)c1c(C)n(C)c2cc(Br)c(O)c(O)c12 | inconclusive [inhibitor, partial curve]
60 | C/C(CCc1ccc2c(c1)OCO2)=N\NC(=O)c1ccc(C)cc1C | inactive
61 | COc1ccc(OC)c(N2C(=O)NC(=O)/C(=C/c3ccc([N+](=O)[O-])s3)C2=O)c1 | active: 3.98 µM
62 | CCOc1ccc(C(=O)c2cn(CC(=O)Nc3ccc(F)c(F)c3)c3cc4c(cc3c2=O)OCCO4)cc1 | inactive
63 | CCN(C(=O)COc1cccc2cccnc12)C1CCS(=O)(=O)C1 (stereo unspecified) | inconclusive [inhibitor, partial curve]
64 | COc1cc(/C=C/C(=O)OCC(=O)NCC2CCCCC2)ccc1O | inconclusive [inhibitor, partial curve]
65 | CCOC(=O)CSc1nc2cc3c(cc2cc1CC)OCCO3 | inconclusive [inhibitor, single point]
66 | O=C1/C(=C/c2ccco2)SC(=S)N1CCC(=O)N1CCCCC1CCO (stereo unspecified) | active: 22.4 µM
67 | Cc1ccccc1CSCC(=O)NC(=O)NCc1ccco1 | inconclusive [inhibitor, partial curve]
68 | CC(=O)c1ccc(NC(=O)CS(=O)(=O)c2cn(CC(=O)N3CCOCC3)c3ccccc23)cc1 | inconclusive [inhibitor, partial curve]
69 | CC1(C)CC(=O)C(C(c2ccco2)C2C(=O)CC(C)(C)CC2=O)C(=O)C1 | inconclusive [inhibitor, partial curve]
70 | O=C(Cn1cc2c(n1)CCCCC2)NC1CCN(Cc2ccccc2)CC1 | inactive
71 | CCn1cc(C(=O)OCC(=O)Nc2c(C)cccc2C)c(=O)c2ccc(C)nc21 | inconclusive [inhibitor, partial curve]
